Paper PMC10668032
Some of the results follow. At the low end of the ranking the order means little.

The sequences below were run against SIX1 homeodomain (reference allele) (UniProt Q15475) (assay: universal protein binding microarray). Settings: Universal all-10-mer PBM (8x60K, AMADID 030236), 300 nM GST-tagged protein, Alexa Fluor 488 anti-GST; buffer, salt, pH and temperature not stated; high values mean tight binding; most listed sequences are background and not binding sites; double strand, one strand shown.

Sequence	binding signal
ATACTGGA	0.325 E-score
CGGGAGGA	-0.0903 E-score
CCATACTA	0.0086 E-score
GTTCCGCA	-0.0215 E-score
ATCCTGCG	0.142 E-score
CCAATGAG	-0.0358 E-score
CTAAACCC	0.14 E-score
CGTCTTCA	0.0171 E-score
ACCTTATC	0.143 E-score
TAAAGCCA	-0.0996 E-score
CCCCAATA	0.0977 E-score
AGTTAGGC	-0.289 E-score
AAGCCTGA	0.0668 E-score
ATATACTC	0.354 E-score
AACACGCA	-0.0659 E-score
ACCAATCG	-0.0164 E-score
CTGTTGAC	-0.352 E-score
CAACCAGA	-0.0279 E-score
ATCACGAC	0.18 E-score
GAGCCACA	-0.0994 E-score
AACGCTGC	-0.204 E-score
GACGCCCC	0.0241 E-score

Sequence	binding signal
TCAGTGCA	-0.136 E-score
ATGCAGAC	-0.0038 E-score
TGACAGAA	-0.13 E-score
CCGTGGAC	-0.106 E-score
ACAGATAT	0.356 E-score
AGCAACAA	-0.139 E-score
CCAGCAAC	-0.128 E-score
CAATGCCC	-0.0333 E-score
ATCGTAAC	0.215 E-score
AAACCGTT	-0.0723 E-score
AAGCTTAG	-0.0745 E-score
AACTCTTG	-0.0598 E-score
ACGATCCT	0.347 E-score
ATCCGGCG	0.345 E-score
CCCTAGCG	-0.224 E-score
CTCTTTTC	-0.138 E-score
GCATAAAA	0.00178 E-score
ATCCTTTG	0.204 E-score
GCCTAGAC	-0.124 E-score
ATGCGTTC	0.0554 E-score
CAAAATTA	-0.1 E-score
AGCCTGCA	-0.108 E-score

Sequence	binding signal
CATACTAC	0.0535 E-score
ACATTACT	-0.188 E-score
CTGATGCC	0.123 E-score
AAGAATGA	0.0726 E-score
ATAGTTCG	-0.0689 E-score
CCGCAGAC	-0.154 E-score
AAATGCAC	-0.222 E-score
CCAAAGAA	-0.182 E-score
CTATCGAC	0.0705 E-score
GTTATATA	0.145 E-score
GAAATGGA	-0.162 E-score
GCACGTCC	-0.131 E-score
ACGGTCAT	-0.0176 E-score
CATGCCAA	-0.124 E-score
AGCTCATG	0.0544 E-score
GGTACACA	-0.128 E-score
ACGGCCGT	-0.149 E-score
CGGAGCGA	-0.124 E-score
CCTCGGAC	-0.0969 E-score
ATGTACAT	-0.152 E-score
CGGAGGTC	-0.112 E-score
GGCGAGGA	-0.076 E-score

Sequence	binding signal
GAACGGGA	-0.0934 E-score
GTGGAATA	0.094 E-score
AAAGGACA	-0.0465 E-score
ATTAAAAC	0.131 E-score
AATTCGGA	0.047 E-score
AAGCGCCT	-0.145 E-score
CACATCTC	-0.0303 E-score
AACCCGAG	0.18 E-score
CCCTGGCG	-0.0981 E-score
CTCTCGAC	-0.0533 E-score
CAGTGCAC	-0.107 E-score
ATGAGACA	0.23 E-score
CACAACAC	-0.0506 E-score
ATTCCAGA	0.0677 E-score
AGTTGGAT	0.216 E-score
AGATGTGG	-0.0918 E-score
ACAATGCG	-0.0263 E-score
TCCTTGAA	-0.181 E-score
GGTGGGAC	-0.186 E-score
ACCCCAAC	0.101 E-score
